# The other results are listed elsewhere or left out.
# Test system: HSkMC (human skeletal muscle cells)
# Assay: cytotoxicity call (relative viability < 0.9)
# Conditions: 10 µM
row,Structure (SMILES),cytotoxicity call
1,Cc1noc(C)c1NC(=O)N(C)C[C@H]1OCCCC[C@@H](C)Oc2ccc(NS(=O)(=O)c3ccc(F)cc3)cc2C(=O)N([C@@H](C)CO)C[C@H]1C,inactive
2,Cc1ccc(S(=O)(=O)N(C)C[C@H]2Oc3ncc(-c4ccncc4)cc3C(=O)N([C@H](C)CO)C[C@@H]2C)cc1,inactive
3,C[C@@H]1CN([C@H](C)CO)C(=O)c2cccc(NS(=O)(=O)c3cn(C)cn3)c2O[C@@H]1CN(C)Cc1ccc(C(=O)Nc2ccccc2N)cc1,inactive
4,Cc1ccc(S(=O)(=O)Nc2ccc3c(c2)C(=O)N([C@@H](C)CO)C[C@@H](C)[C@@H](CN(C)C(=O)c2ccccc2)OCCCC[C@@H](C)O3)cc1,inactive
5,CN(C)CCCNc1ncnc(N)c1[N+](=O)[O-],inactive
6,COCC(=O)N(C)C[C@H]1Oc2cc(-c3ccc(C#N)cc3)ccc2S(=O)(=O)N([C@H](C)CO)C[C@@H]1C,inactive
7,CCS(=O)(=O)Nc1ccc2c(c1)C(=O)N(C)C[C@@H](OC)[C@@H](C)CN(CCC(F)(F)F)[C@H](C)CO2,inactive
8,CC(C)NC(=O)N(C)C[C@@H]1Oc2ncc(-c3ccc(C(=O)N(C)C)cc3)cc2C(=O)N([C@@H](C)CO)C[C@@H]1C,inactive
9,CC(C)(O)C#Cc1ccc([C@H]2[C@H](CO)N3CCCCN(S(C)(=O)=O)C[C@@H]23)cc1,inactive
10,C[C@H](CO)N1C[C@H](C)[C@H](CN(C)C(=O)CCN2CCCCC2)Oc2ncc(C#CCN(C)C)cc2C1=O,inactive
11,C[C@@H]1CN([C@H](C)CO)C(=O)Cc2cc(NC(=O)Cn3cnnn3)ccc2O[C@@H]1CN(C)Cc1ccncc1,inactive
12,C[C@@H]1CCCCO[C@H](CN(C)S(=O)(=O)c2ccc(F)cc2)[C@@H](C)CN([C@H](C)CO)C(=O)c2cc(NC(=O)CCCCCC(=O)Nc3ccccc3N)ccc2O1,inactive
13,Cc1ccc(S(=O)(=O)N(C)C[C@@H]2OCCCC[C@@H](C)Oc3ccc(NC(=O)CCCCCC(=O)Nc4ccccc4N)cc3C(=O)N([C@H](C)CO)C[C@@H]2C)cc1,inactive
14,CCN(CCO)CCCOc1ccc2c(Nc3cc(CC(=O)Nc4cccc(F)c4)n[nH]3)ncnc2c1,inactive
15,COc1ccc(C(=O)Nc2ccc(CN3C(=O)[C@@]4(O[C@@H](CC(=O)N(CCO)Cc5ccccc5)[C@H]([Si](C)(C)c5ccc(OC)cc5)[C@H]4C)c4ccccc43)cc2)cc1,inactive
16,O=C(C[C@@H]1CC[C@@H]2[C@H](COC[C@@H](O)CN2S(=O)(=O)c2ccc(Cl)cc2)O1)NCCN1CCCC1,inactive
17,Cc1ccc(S(=O)(=O)N[C@H]2CC[C@H](CCNC(=O)CN3CCOCC3)O[C@H]2CO)cc1,inactive
18,COc1ccc(C#Cc2ccc3c(c2)[C@H]2[C@H](CCN2C(=O)Nc2ccc(C(F)(F)F)cc2)[C@@H](CO)N3C)cc1,inactive
19,C[C@@H]1CN([C@H](C)CO)C(=O)Cc2cc(NC(=O)CCN3CCOCC3)ccc2O[C@H]1CN(C)Cc1ccc2c(c1)OCO2,inactive
20,C[C@H](CO)N1C[C@H](C)[C@H](CN(C)C(=O)C2CCCCC2)OCCCC[C@H](C)Oc2ccc(NC(=O)C3CCCCC3)cc2C1=O,inactive

row,Structure (SMILES),cytotoxicity call
1,C[C@@H]1CN([C@H](C)CO)C(=O)c2cccc(NC(=O)Nc3ccc(C(F)(F)F)cc3)c2O[C@H]1CN(C)Cc1ccc(-c2ccccc2)cc1,inactive
2,C[C@@H]1CN([C@H](C)CO)C(=O)Cc2cc(NC(=O)CCN3CCOCC3)ccc2O[C@H]1CN(C)Cc1ccc(C(=O)Nc2ccccc2N)cc1,inactive
3,C[C@H](CO)N1C[C@H](C)[C@@H](CN(C)S(C)(=O)=O)OCCCC[C@H](C)Oc2ccc(NS(=O)(=O)c3cn(C)cn3)cc2C1=O,inactive
4,C[C@@H]1CCCCO[C@H](CN(C)S(=O)(=O)c2ccc(Cl)cc2)[C@H](C)CN([C@H](C)CO)C(=O)c2cc(NC(=O)Cc3ccccc3)ccc2O1,inactive
5,N=C(N)NCCC[C@@H](NC(=O)[C@@H]1CCCN1C(=O)[C@H]1CSSCCC(=O)N[C@@H](Cc2ccc(O)cc2)C(=O)N[C@@H](Cc2ccccc2)C(=O)N[C@@H](CCC(N)=O)C(=O)N[C@@H](CC(N)=O)C(=O)N1)C(=O)NCC(N)=O,inactive
6,CNC[C@@H]1OCCCC[C@@H](C)Oc2ccc(NC(=O)Nc3cccc4ccccc34)cc2C(=O)N([C@H](C)CO)C[C@@H]1C,inactive
7,O=C(C[C@@H]1C=C[C@H](NC(=O)Cc2ccccn2)[C@@H](CO)O1)NCCc1ccncc1,inactive
8,C[C@H]1CN([C@@H](C)CO)C(=O)c2cc(C#CCN(C)C)cnc2O[C@H]1CN(C)Cc1ccc2c(c1)OCO2,inactive
9,O=C(C[C@H]1C[C@@H]2c3cc(NS(=O)(=O)c4ccc(F)cc4)ccc3O[C@@H]2[C@@H](CO)O1)NCc1ccccn1,inactive
10,CCNC(=O)C[C@H]1C=C[C@H](NC(=O)C2CC2)[C@H](CO)O1,inactive
11,C[C@H](CO)N1C[C@H](C)[C@H](CN(C)C(=O)Nc2ccc(C(F)(F)F)cc2)Oc2c(NC(=O)Nc3ccccc3)cccc2C1=O,inactive
12,CC(C)CS(=O)(=O)N1CCC2(CC1)[C@H]1CN(c3ncccn3)C[C@@H]1C(=O)N2C,inactive
13,C[C@H]1CN([C@@H](C)CO)C(=O)c2cc(NS(=O)(=O)c3cccs3)ccc2O[C@@H]1CN(C)Cc1ccc(Cl)c(Cl)c1,inactive
14,Cn1c(=O)n2n(c1=O)[C@H](C1CC1)C=C1CN3[C@@H]([C@H](Cc4ccccc4)OC(=O)[C@@H]3COC(=O)NCCCCCC(=O)NO)[C@@H]12,inactive
15,COc1cccc(S(=O)(=O)N[C@@H]2CC[C@@H](CC(=O)NC3CCC3)O[C@@H]2CO)c1,inactive
16,O=C(C[C@@H]1CC[C@H]2[C@@H](COC[C@@H](O)CN2S(=O)(=O)c2cccc(F)c2)O1)NCCCN1CCOCC1,inactive
17,C[C@@H]1CN([C@H](C)CO)C(=O)c2cc(NC(=O)Nc3ccc(C(F)(F)F)cc3)ccc2O[C@@H](C)CCCCO[C@@H]1CN(C)Cc1ccccc1,active
18,CC(C=CC1=C(C)CCCC1(C)C)=CC=CC(C)=CCO,inactive
19,C[C@@H]1CCCCO[C@@H](CN(C)Cc2ccc(C(F)(F)F)cc2)[C@@H](C)CN([C@H](C)CO)C(=O)c2cc(NC(=O)CCCCCC(=O)Nc3ccccc3N)ccc2O1,inactive
20,CN(C)CC#Cc1ccc([C@H]2[C@H](CO)N3C(=O)CN(C(=O)CN(C)C)C[C@@H]23)cc1,inactive

# Reference: the antibiotic and cytotoxicity screens of Wong et al. (2023)
